From patent publication US20050192547A1, “Combinations of antiseptic and antibiotic agents containing medical devices” (priority 2002, published 2005)
Read-outs that look alike come from different tables or passages of the source. Positions of bridges follow the written chain, without caps; N, C: chain ends. Non-standard residues stand in square brackets, D forms with d. Residues, ends and D or L forms follow the SMILES beside them. *: point of attachment. Ileψ(thiazoline)Cys = CC[C@H](C)[C@H](N)C1=N[C@H](C(=O)*)CS1; dOrn = NCCC[C@@H](N)C(=O)O

How the values were obtained:
[1] = tested on: Pseudomonas aeruginosa
[2] = tested on: Staphylococcus epidermidis; assay: Zones of inhibition of antibiotic-treated catheter segments with daily transfer to fresh plates; assay type: cell-based; details: catheter treated with 5 percent (w/v) antibiotic
[3] = catheter TREATMENT: 5% ANTIBIOTIC

Compound	Zones of Inhibition Against Pseudomonas aeruginosa [1, 3] [mm]	Zones of Inhibition ([2]; DAY 1) [mm]	Zones of Inhibition ([2]; DAY 4) [mm]	Zones of Inhibition ([2]; DAY 7) [mm]	also measured
CC[C@H](C)[C@H](N)C1=N[C@H](C(=O)N[C@@H](CC(C)C)C(=O)N[C@H](CCC(=O)O)C(=O)N[C@H](C(=O)N[C@H]2CCCCNC(=O)[C@H](CC(N)=O)NC(=O)[C@@H](CC(=O)O)NC(=O)[C@H](Cc3cnc[nH]3)NC(=O)[C@@H](Cc3ccccc3)NC(=O)[C@H]([C@@H](C)CC)NC(=O)[C@@H](CCCN)NC2=O)[C@@H](C)CC)CS1 [Bacitracin, bacitracin] ({Ileψ(thiazoline)Cys}-L[dE]IK[dOrn]I[dF]H[dD]N; lactam 4-C)					Zones of Inhibition Against Pseudomonas aeruginosa ([1]; 24 h): 0 mm
CC(C)(O/N=C(\C(=O)N[C@@H]1C(=O)N2C(C(=O)[O-])=C(C[n+]3ccccc3)CS[C@H]12)c1csc(N)n1)C(=O)O [Ceftazidine, ceftazidine]	28				
Cc1onc(-c2c(Cl)cccc2Cl)c1C(=O)N[C@@H]1C(=O)N2[C@@H]1SC(C)(C)[C@@H]2C(=O)O [Dicloxacillin, dicloxacillin]	0				
Clc1ccc(COC(Cn2ccnc2)c2ccc(Cl)cc2Cl)c(Cl)c1 (centres unmarked) [Miconazole, miconazole]	0				
CN(C)c1ccc(O)c2c1C[C@H]1C[C@H]3[C@H](N(C)C)C(O)=C(C(N)=O)C(=O)[C@@]3(O)C(O)=C1C2=O [Minocycline (M), minocycline]	0	>25	26	15	
CCn1cc(C(=O)O)c(=O)c2cc(F)c(N3CCNCC3)cc21 [Norfloxacin (Nf), norfloxacin]	25	>25	10	8	
CO[C@H]1/C=C/O[C@@]2(C)Oc3c(C)c(O)c4c(O)c(c(/C=N/N5CCN(C)CC5)c(O)c4c3C2=O)NC(=O)/C(C)=C\C=C\[C@H](C)[C@H](O)[C@@H](C)[C@@H](O)[C@@H](C)[C@H](OC(C)=O)[C@@H]1C [Rifampin (R), rifampin]	8.0				
NC[C@H]1O[C@H](O[C@H]2[C@H](O)[C@@H](O[C@H]3O[C@H](CO)[C@@H](O)[C@H](N)[C@H]3O)[C@H](N)C[C@@H]2N)[C@H](N)C[C@@H]1O [Tobramycin (Tb), tobramycin]	27	>25	7	0	
bismuth sulfadiazine					Zones of Inhibition Against Pseudomonas aeruginosa ([1]; catheter treated with 2% Bismuth Salt): 6.5 mm; Zones of Inhibition Against Pseudomonas aeruginosa ([1]; catheter treated with 2% Bismuth Salt + 3% Minocycline): 15.5 mm
gentamycin	22				
